# Experimental data as given in the supplement of paper PMC3334620.
# Whole data set: some 33,000 sequences, median “E-score (-0.5 to 0.5)” near -0.04, cut for the highest 2% near 0.36. The list shows a part of the results.
# Target: T1, Hmlalpha2 (UniProt P0CY09)
# T1 sequence: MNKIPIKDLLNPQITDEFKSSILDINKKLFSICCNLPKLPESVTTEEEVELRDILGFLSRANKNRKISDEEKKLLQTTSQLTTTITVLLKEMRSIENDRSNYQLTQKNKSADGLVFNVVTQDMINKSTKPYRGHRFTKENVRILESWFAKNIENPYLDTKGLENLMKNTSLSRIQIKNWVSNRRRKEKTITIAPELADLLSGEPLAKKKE
# Experiment: PBM E-score (8-mer binding enrichment) (E-score (-0.5 to 0.5)); higher = stronger / more preferred TF binding; most listed sequences are background and not binding sites
# Conditions: protein concentration: 200 nM; construct: GST-full length
# Procedure: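 Universal 'all 10-mer' protein binding microarrays (Agilent AMADID 015681) probed with GST-tagged S. cerevisiae TFs (full-length or DBD) made by in vitro transcription/translation (PURExpress), about 100-200 nM. Bound TF was detected with fluorescent anti-GST. Each ungapped 8-mer (which stands for itself and its reverse complement) is scored by the PBM enrichment score (E-score), a modified Wilcoxon-Mann-Whitney statistic from -0.5 to +0.5, computed with the Universal PBM Analysis Suite. Scale: above 0.35 generally sequence-specific binding.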
row,Sequence,PBM E-score
1,CTAGCGCA,-0.177
2,CTCGGGAA,-0.123
3,CCAGACTA,-0.0503
4,CCCCCCAC,-0.391
5,TACATGTA,0.479
6,ATGGGACC,-0.0949
7,CCAATTAG,-0.0353
8,CCCTAAAA,-0.194
9,GTCGGCCA,-0.226
10,ACCAAGCG,-0.073
11,CCGATCAA,-0.0314
12,GGATGAAC,-0.108
13,GGGCGGAA,-0.311
14,CCTAGGAG,-0.13
15,TAATAGTA,0.264
16,ATCGGAAG,0.046
17,ACGGCACA,-0.00134
18,AACGGACT,-0.0339
19,GTCCTCCA,-0.258
20,ACATCCAA,0.205
21,GTTTATTA,0.336
22,GGTAGCAA,-0.113

row,Sequence,PBM E-score
1,ATAGATCA,0.173
2,AGTTAGAC,0.161
3,CTGGCAAC,-0.224
4,AGTCAGAA,-0.18
5,TATCTAGA,0.0413
6,ATAACACA,0.439
7,AAGTAGTG,-0.111
8,ATTGTTGA,0.311
9,ATGCAAGC,0.127
10,GAAGCAGC,-0.226
11,AGGTAGCC,-0.131
12,CATCGGCC,-0.271
13,CATATTGC,-0.2
14,CATGATGG,0.00737
15,CGGCACAC,-0.156
16,ACAGCCTG,0.0318
17,ATTTATAA,0.175
18,ACGCTACT,0.0717
19,CAGGCAGC,-0.307
20,AGATCATC,0.0764
21,ATCTAATC,0.166
22,CTTGAGTA,0.053

row,Sequence,PBM E-score
1,ACAGAAGG,-0.218
2,CTAGTAAG,0.0377
3,ATAGTTGA,-0.0016
4,ATACTCTG,0.143
5,AAGGAGAA,-0.0368
6,CCGGATGC,-0.178
7,CTTGATTC,0.012
8,ACCCAACA,-0.0487
9,ACGAAGAG,0.0451
10,AGAGCTAA,-0.129
11,ACGATGTG,0.19
12,TCCTTCAA,0.00135
13,TCCATCCA,-0.166
14,AGCTACGA,-0.109
15,CATTCTCC,-0.0234
16,CTCAGCCC,-0.268
17,AAGGCGGG,-0.1
18,GTCGCTCA,-0.101
19,CCTAGTCC,-0.138
20,TCTGTACA,0.258
21,AGATCTGA,-0.0313
22,CGATTTTC,0.00894

row,Sequence,PBM E-score
1,ACGCGTCG,0.276
2,CGCGTGTA,0.458
3,AGTATTGA,0.0644
4,CCTCTGCG,-0.27
5,AAACGACA,0.235
6,ACGTAAAG,0.372
7,GATCAGGA,-0.338
8,GATAGATA,-0.0695
9,ACAGGACT,-0.101
10,AAGATGGT,0.134
11,CGAATTGA,-0.0593
12,GATTGCAC,0.121
13,CTCCACCC,-0.222
14,AAGGAACT,-0.108
15,ACATATAG,0.281
16,TGTGAAAA,0.16
17,AATGACGC,0.104
18,GACGCGCA,0.00745
19,CGAACCGC,0.0375
20,TATCATAA,0.105
21,CGACGCGC,0.145
22,ATCGAGAG,-0.0481

row,Sequence,PBM E-score
1,AGTGAGCA,0.0429
2,AGGGGTAA,0.00981
3,AACCGGGG,-0.223
4,CGAGGCGC,-0.206
5,AACACCGG,0.171
6,GCCTTAAC,0.116
7,CTCTGGGC,-0.162
8,CCTGTAGC,-0.11
9,CTTGTGCA,0.133
10,AGAGCGTA,0.0145
11,TACGATGA,0.171
12,ACCCTACC,-0.244
13,CCACTGAC,-0.29
14,CGCACCGA,-0.192
15,ACAGTTCG,0.0364
16,AATTCGAC,-0.124
17,CCGTTTCG,-0.00491
18,CGTTGCAC,0.0273
19,GATATCAC,-0.0157
20,TGGACAAA,0.00245
21,GGCCAGCC,-0.192
22,CACTGTCG,-0.142
